From PubChem BioAssay AID488969 (Vanderbilt High Throughput Screening Facility, 2010)
Whole data set: some 110,000 compounds, median “z-score” near -0.1, cut for the highest 2% near 2. The list shows a part of the results.

molecular target: Metabotropic glutamate receptor 8 (Rattus norvegicus) (UniProt P70579); assay: rat mGluR8 modulators via GIRK flux, primary screen, cell-based, thallium flux, HTS (AID 488969); conditions: HEK293 rat mGluR8, GIRK (G protein-gated inwardly rectifying potassium channel) thallium flux, FluoZin2; at 10 µM; stronger effect = higher value; submaximal glutamate (EC20) added with thallium
Sequence of UniProt P70579 (P70579 whole entry, looked up): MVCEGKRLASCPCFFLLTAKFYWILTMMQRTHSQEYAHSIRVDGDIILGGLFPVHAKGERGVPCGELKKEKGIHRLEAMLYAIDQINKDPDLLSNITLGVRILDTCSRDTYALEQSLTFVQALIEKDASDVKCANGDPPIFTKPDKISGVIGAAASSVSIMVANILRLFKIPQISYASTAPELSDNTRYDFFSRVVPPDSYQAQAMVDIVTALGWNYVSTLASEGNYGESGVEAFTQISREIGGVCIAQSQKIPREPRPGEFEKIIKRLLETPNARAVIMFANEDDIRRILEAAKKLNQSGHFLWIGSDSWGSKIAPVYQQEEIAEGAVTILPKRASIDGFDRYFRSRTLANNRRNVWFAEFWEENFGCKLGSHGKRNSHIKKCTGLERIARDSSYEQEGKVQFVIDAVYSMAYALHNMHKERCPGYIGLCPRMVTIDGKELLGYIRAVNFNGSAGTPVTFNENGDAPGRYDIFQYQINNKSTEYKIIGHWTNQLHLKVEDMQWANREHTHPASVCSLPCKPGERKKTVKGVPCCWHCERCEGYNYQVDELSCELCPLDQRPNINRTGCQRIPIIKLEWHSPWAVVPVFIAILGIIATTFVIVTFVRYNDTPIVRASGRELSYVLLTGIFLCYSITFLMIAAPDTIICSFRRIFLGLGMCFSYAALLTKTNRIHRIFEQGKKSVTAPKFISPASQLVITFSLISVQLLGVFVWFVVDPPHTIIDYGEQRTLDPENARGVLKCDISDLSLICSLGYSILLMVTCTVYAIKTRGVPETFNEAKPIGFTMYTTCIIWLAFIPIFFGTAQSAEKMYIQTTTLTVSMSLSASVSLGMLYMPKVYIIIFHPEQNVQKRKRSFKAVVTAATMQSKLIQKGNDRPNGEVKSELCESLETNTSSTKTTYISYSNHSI

| Compound | z-score |
| --- | --- |
| Cc1nc(Nc2ccc(S(N)(=O)=O)cc2)oc1C | 0.35 |
| CCOCCCNC(=O)Cc1ccc(OC)c(OC)c1 | 0.0289 |
| COc1cccc(C(=O)NCCC2=CCCCC2)c1 | 0.00764 |
| COc1ccc(OC)c(-c2cc(C(=O)NCCN3CCOCC3)no2)c1 | -0.164 |
| O=C(c1cc(-c2ccc(Cl)cc2Cl)on1)N1CCN(C(=O)c2ccco2)CC1 | 0.486 |
| CCN(CC)C(=O)Cc1cc(C(=O)O)c2ccccc2n1 | 0.153 |
| Cc1nn(Cc2ccccc2Cl)c(C)c1NC(=O)Cn1nc([N+](=O)[O-])c(Cl)c1C | -0.13 |
| CC(=O)C1=C(c2ccccc2)NC(=S)NC1c1cc(Cl)c(OC(C)C)c(Cl)c1 (stereo not given) | 0.616 |
| Cc1ccccc1-c1cc(-c2ccccc2O)n[nH]1 | -0.969 |
| Cc1cc(=O)oc(C)c1C(=O)NCCC1=CCCCC1 | -0.0341 |
| COc1ccccc1CC(=O)O/N=C(\N)c1cccc([N+](=O)[O-])c1 | -0.313 |
| CCOc1ccc(CNc2nc3ccccc3n2CCN2CCOCC2)cc1 | 0.0891 |
| Cc1ccc(-n2ncc3c(N4CCN(c5ccccc5)CC4)ncnc32)c(C)c1 | 0.679 |
| COc1ccc(CCNc2c([N+](=O)[O-])c(=O)oc3ccccc23)cc1OC | -0.208 |
| COC(=O)Cn1c(=NC(=O)c2cc(OC)cc(OC)c2)sc2cc(OC)ccc21 | -0.00301 |
| COc1ccc(OC)c(C2=NNC(=NCc3ccc4c(c3)OCO4)SC2)c1 | 0.356 |
| COCCn1c(-c2ccc(OC(F)(F)C(F)C(F)(F)F)cc2)nc2c1c(=O)[nH]c(=O)n2CC(C)C (stereo not given) | 0.0959 |
| O=C(Cc1ccccc1)NCCc1cn2ccsc2n1 | 0.0181 |
| Cc1ccc(CSc2nnc(-c3ccco3)o2)cc1 | 0.081 |
| O=C(CN(C(=O)CSc1nc2ccccc2o1)c1ccccc1F)NC1CCCCC1 | -0.692 |
| CC(C)OCCCNCC(O)c1ccccc1 (stereo not given) | -0.434 |
| COc1ccc(-c2nnc(SCC(=O)NC(C)c3ccccc3)o2)cc1OC (stereo not given) | -0.12 |
| Cc1nn(C(=O)CCCC(=O)n2nc(C)c(Cl)c2C)c(C)c1Cl | 0.437 |
| CCOC(=O)N1CCN(c2c(N3CCN(c4cc(C)ccc4C)CC3)c(=O)c2=O)CC1 | 0.0873 |

| Compound | z-score |
| --- | --- |
| CCOc1ccccc1NC(=O)C(=O)/C=C(\O)c1cc(OC)ccc1OC | 1.35 |
| Cc1cc(=O)[nH]c(SCCOc2ccc(OC(C)C)cc2)n1 | -0.838 |
| O=C(CN1C(=O)c2ccccc2C1=O)Nc1ccccc1C(=O)NC1CCCCC1 | -0.445 |
| CC(CNc1ccc([N+](=O)[O-])c2cccnc12)Nc1c([N+](=O)[O-])cc(C(F)(F)F)cc1[N+](=O)[O-] (stereo not given) | -0.0979 |
| COc1ccc(NC(=O)COC(=O)/C=C/c2ccc(OC)c(S(=O)(=O)N3CCOCC3)c2)cc1 | -0.355 |
| CC(=O)OC1COC(n2ccc3cc([N+](=O)[O-])ccc32)C(OC(C)=O)C1OC(C)=O (stereo not given) | 0.0746 |
| CC(C)NC(=S)N(C)C1(c2ccccc2Cl)CCCCC1=O (stereo not given) | -0.22 |
| COc1ccc(C2=NCC(CSc3nccc(=O)[nH]3)S2)cc1 (stereo not given) | -1.19 |
| COC(=O)C1=C(C)N(CCc2ccccc2)C(=O)/C1=C\c1ccco1 | -0.225 |
| CCCC(=O)Nc1sc(C)c(-c2ccc(C(C)CC)cc2)c1C#N (stereo not given) | 0.288 |
| Nc1c(N=Nc2cccc(Cl)c2)c(=O)[nH]n1-c1ccccc1 | -0.199 |
| CC1CC(=O)NN=C1c1ccc(N)c([N+](=O)[O-])c1 (stereo not given) | 0.0922 |
| Nc1cc(N)cc(-c2nc3ccccc3[nH]2)c1 | 0.818 |
| CCOc1cccc(-c2nnc(SCC(=O)Nc3ccc(OC)c(OC)c3)n2N)c1 | 0.582 |
| COc1ccc(C2CN=NC23CCCc2ccccc2C3=O)cc1 (stereo not given) | -0.251 |
| Cc1ccccc1NC(=S)NC1CCN(Cc2ccccc2)CC1 | 0.33 |
| CCOC(=O)CSc1nc(C(C)C)nc2ccccc12 | 0.0609 |
| COc1ccc(C(=O)c2cc3ccc(O)cc3oc2=O)cc1 | 0.696 |
| COC(=O)[C@@H](NC(=O)NC1CCN(Cc2ccccc2)CC1)C(C)C | -0.196 |
| COc1ccc(C(C(=O)NC(C)(C)C)N(C(=O)CNC(=O)c2cccs2)c2ccc(C(C)C)cc2)cc1OC (stereo not given) | -0.16 |
| O=C(NCc1cccnc1)c1csc2c1CCCC2 | 0.0876 |
| CCOc1ccccc1NC(=O)N1CCC(C(=O)c2ccc(F)cc2)CC1 | -0.436 |
| O=C(OCc1nc2ccc(Cl)cc2n1CCO)c1ccccc1C(=O)c1ccccc1 | -0.435 |
| Cc1ccccc1-n1c(N)cc(=O)[nH]c1=S | -0.603 |

| Compound | z-score |
| --- | --- |
| COc1cc(/C=N/NC(=O)CCn2c3ccccc3c3ccccc32)ccc1O | -0.393 |
| Oc1ccccc1C1=Nc2ccccc2N=C(c2cccs2)C1 | 0.0299 |
| Cc1cc(C)cc(NC(=O)CN2CCC(NC(=O)Cc3ccccc3)CC2)c1 | -0.23 |
| COc1ccccc1NC(=O)CN(Cc1ccccc1)S(C)(=O)=O | -0.226 |
| Cc1sc2nc3n(c(=O)c2c1C)NC(=O)CC3 | -0.373 |
| N#CC1=C(N)SC(N)=C(C#N)C1c1ccc(C(F)(F)F)cc1 | 0.26 |
| CC(NC(=O)Nc1ccc(F)cc1)C(c1cccs1)N1CCCC1 (stereo not given) | 0.497 |
| Cc1nc(-c2c(C(F)(F)F)noc2-c2ccc(O)cc2O)cs1 | -0.14 |
| COc1ccc(C2C(C(C)=O)=C(O)C(=O)N2Cc2cccnc2)cc1 (stereo not given) | 0.978 |
| COc1ccc(CN2C(=O)c3cccnc3C2Nc2ccc(C)cc2)cc1 (stereo not given) | -0.235 |
| COc1cccc2c(=O)c(C(=O)O)c[nH]c12 | -0.0418 |
| Cc1ccccc1CSc1nncn1N | -0.5 |
| CCN(CC)C(=O)CN(c1cc2c(cc1OC)oc1ccccc12)S(=O)(=O)c1ccccc1 | 0.226 |
| O=C(NCCSCc1ccccc1)c1ccc(Cl)c(S(=O)(=O)N2CCOCC2)c1 | -0.536 |
| CCCCC(=O)Nc1ccc(C(=O)N2CCC(C(=O)OCC)CC2)cc1 | -0.394 |
| Cc1cccc(-n2c(-c3ccoc3C)n[nH]c2=S)c1 | -0.0319 |
| CCNc1nc(NC(C)CC)nc(Oc2ccc(=O)[nH]n2)n1 (stereo not given) | -0.162 |
| CCOC(=O)C1CCCN(S(=O)(=O)c2ccc(OC)cc2)C1 (stereo not given) | 0.164 |
| S=C(c1cccs1)N1CCCC1 | 0.128 |
| CC(C(=O)Nc1cc([N+](=O)[O-])ccc1Cl)N1CCN(c2ccccc2O)CC1 (stereo not given) | -1.94 |
| Cc1ccc(C)c(-n2c(SCC(=O)Nc3nnc(C)s3)nnc2-c2ccoc2C)c1 | -0.167 |
| COc1cc(/C=C/C(=O)OCC(=O)NC(=O)NC23CC4CC(CC(C4)C2)C3)ccc1OCC#N | -1.04 |
